Measured values reported in PubChem BioAssay AID504332 (National Center for Advancing Translational Sciences (NCATS), 2011).
Among all 350,000 compounds or so, about 31,000 (8.9%) were called active. The shares of active, inactive and inconclusive entries below differ from those in the screen. Calls come from the whole dose curve; as a rule, active = well fitted inhibition curve with a large enough effect; inconclusive = small, poorly fitted or top-dose-only effect; inactive = no such curve, though single readings can be large or run the other way. A potency beside an inconclusive call is a rough fit, not a confirmed value.

target: Histone-lysine N-methyltransferase EHMT2 (Homo sapiens) (UniProt Q96KQ7); assay: qHTS Assay for Inhibitors of Histone Lysine Methyltransferase G9a; conditions: G9a H3K9 monomethylation, AlphaScreen, 2 h; activity, negative = inhibition: at 59 µM (top of the series) unless noted; note: nearly all actives have a fitted effect of over 75% in size
UniProt Q96KQ7, sequence (Q96KQ7 whole entry, looked up): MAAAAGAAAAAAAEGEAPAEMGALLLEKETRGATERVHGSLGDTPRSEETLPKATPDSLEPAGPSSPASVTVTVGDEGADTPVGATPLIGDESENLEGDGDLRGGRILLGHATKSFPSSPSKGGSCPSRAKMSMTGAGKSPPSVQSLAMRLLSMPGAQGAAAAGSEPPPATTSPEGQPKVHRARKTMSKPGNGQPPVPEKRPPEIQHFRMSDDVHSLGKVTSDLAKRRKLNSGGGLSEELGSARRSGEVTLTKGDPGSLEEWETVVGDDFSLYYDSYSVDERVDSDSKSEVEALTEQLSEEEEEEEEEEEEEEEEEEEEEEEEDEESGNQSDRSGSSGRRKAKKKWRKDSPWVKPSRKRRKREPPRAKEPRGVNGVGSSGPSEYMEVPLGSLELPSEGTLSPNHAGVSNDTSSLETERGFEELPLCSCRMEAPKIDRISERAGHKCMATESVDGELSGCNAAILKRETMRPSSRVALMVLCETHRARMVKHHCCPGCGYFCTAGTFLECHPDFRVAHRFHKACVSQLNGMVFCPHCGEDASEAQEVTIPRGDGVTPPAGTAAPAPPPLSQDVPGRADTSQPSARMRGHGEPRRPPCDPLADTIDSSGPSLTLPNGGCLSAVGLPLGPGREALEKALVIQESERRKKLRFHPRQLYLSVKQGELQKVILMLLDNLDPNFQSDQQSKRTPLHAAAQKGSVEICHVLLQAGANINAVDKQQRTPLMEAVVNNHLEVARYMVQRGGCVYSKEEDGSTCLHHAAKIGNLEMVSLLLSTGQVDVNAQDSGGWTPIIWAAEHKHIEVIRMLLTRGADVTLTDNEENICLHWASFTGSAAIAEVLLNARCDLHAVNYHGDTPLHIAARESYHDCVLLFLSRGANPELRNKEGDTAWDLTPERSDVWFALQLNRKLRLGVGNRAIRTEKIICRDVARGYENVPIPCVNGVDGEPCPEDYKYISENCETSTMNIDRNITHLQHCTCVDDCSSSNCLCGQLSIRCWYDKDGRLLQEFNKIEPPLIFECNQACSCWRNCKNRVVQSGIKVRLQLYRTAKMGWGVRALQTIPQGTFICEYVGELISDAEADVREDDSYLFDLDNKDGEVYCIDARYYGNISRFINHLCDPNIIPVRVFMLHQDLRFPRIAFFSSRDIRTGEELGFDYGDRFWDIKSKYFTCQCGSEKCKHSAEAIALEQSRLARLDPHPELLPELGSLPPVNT
Outline: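 Signal arises when biotinylated H3K9 peptide, once monomethylated, bridges streptavidin donor and antibody-captured acceptor beads. Enzyme at 20 nM was preincubated 15 min with test compounds; peptide 500 nM and SAM 20 uM then reacted for 2 h.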
% is set by controls: 0 for no effect and ±100 for the full control effect; potency is the fitted concentration of half-maximal effect; tags give direction and shape of the fitted curve.

**Q.** Which activity, negative = inhibition does the source give for C[C@H](NC(=O)c1[nH]cnc1C(=O)N[C@H](C)c1ccccc1)c1ccccc1 here?
**A.** The activity, negative = inhibition was inactive: 25.8% [at 2.33 µM].

**Q.** For Cc1cc(Cl)ccc1OCC(=O)OCC(=O)N(CC(C)C)c1c(N)n(Cc2ccccc2)c(=O)[nH]c1=O, which “activity, negative = inhibition” value is on record?
**A.** Its value is inactive: -10.1% [at 102 µM].

**Q.** CC1CC=C2C(C#N)=C(N)C(C#N)(C#N)C(c3cccs3)C2C1 (centres undefined) was tested. Which Potency did it give?
**A.** The Potency was active: 39.8 µM.

**Q.** Which Potency does the source give for O=C(NN1C(=O)/C(=C/c2cccs2)SC1=S)c1cccnc1 here?
**A.** The Potency was active: 50.1 µM.

**Q.** Which Potency does the source give for CCOC(=O)c1c(C)nc2ccccc2c1C here?
**A.** Its Potency is inconclusive: 2.82 µM [inhibitor, partial curve, poor fit].

**Q.** With COc1ccc(OCc2ccc(-c3nc(C#N)c(NCc4ccccc4)o3)o2)cc1 as the compound, how does the Potency read?
**A.** The Potency was inconclusive: 7.08 µM [inhibitor, full curve].

**Q.** How did the activity, negative = inhibition turn out when CCCS(=O)(=O)N1CCC(C(=O)NCCCN(CC)c2cccc(C)c2)CC1 was run?
**A.** The activity, negative = inhibition was inconclusive: -73.1% [inhibitor].

**Q.** For O=C(NCC(c1ccc2c(c1)OCO2)N1CCN(c2ccc(F)cc2)CC1)c1cccc([N+](=O)[O-])c1 (centres undefined), which Potency is on record?
**A.** Its Potency is inconclusive: 10 µM [inhibitor, partial curve].

**Q.** How did the “activity, negative = inhibition” value turn out when O=C(N/N=C/c1ccc([N+](=O)[O-])o1)c1cn(-c2ccccc2)nc1-c1ccc(Cl)cc1 was run?
**A.** Its value is inactive: 4.83% [at 102 µM].

**Q.** COc1ccc(CCNC(=O)C2CCN(S(=O)(=O)N3CCCCCC3)CC2)cc1OC was tested. Which activity, negative = inhibition did it give?
**A.** Its activity, negative = inhibition is inactive: 16.1% [at 12.7 µM].

**Q.** How did the Potency turn out when COc1ccc(Oc2c(C)oc3c(CN(C)C)c(O)ccc3c2=O)cc1 was run?
**A.** Its Potency is inconclusive: 89.1 µM [inhibitor, single point].

**Q.** Which Potency does the source give for CC1=C(C(N)=O)C(c2ccco2)C(C(N)=O)=C(C)N1 here?
**A.** Its Potency is active: 56.2 µM.

**Q.** With O=C(Nc1ccc(F)cc1Cl)C1CCN(c2ncnc3c2nc2n3CCCCC2)CC1 as the compound, how does the “activity, negative = inhibition” value read?
**A.** Its value is inactive: -12.1%.

**Q.** O=C(/C=C/c1ccc(Br)cc1)NC(=O)c1ccccc1O was tested. Which Potency did it give?
**A.** Its Potency is inconclusive: 31.6 µM [inhibitor, partial curve, poor fit].

**Q.** For Cc1ccc2nc(-c3cc(N)cc(N)c3)oc2c1, which “activity, negative = inhibition” value is on record?
**A.** Its value is inactive: -42%.

**Q.** For Cc1nc(COc2ccc(C(=O)NCc3ccccc3CN3CCCCC3)cc2)cs1, which activity, negative = inhibition is on record?
**A.** The activity, negative = inhibition was inactive: -8.03% [at 12.7 µM].

**Q.** For CCOc1ccc(C2C(C(=O)OC)=C(C)NC3=C2C(=O)c2ccccc23)cc1OC (centres undefined), which Potency is on record?
**A.** Its Potency is inconclusive: 5.01 µM [inhibitor, full curve, poor fit].

**Q.** Which Potency does the source give for CCOC(=O)N1CCC(NC(=O)c2cnn3c2NC(c2ccco2)CC3C(F)(F)F)CC1 (centres undefined) here?
**A.** The Potency was inconclusive: 17.8 µM [inhibitor, single point].

**Q.** Which Potency does the source give for CCOc1ccc(N2CC(C(=O)NCc3ccc(C)n3C)CC2=O)cc1 (centres undefined) here?
**A.** Its Potency is inconclusive: 44.7 µM [inhibitor, partial curve, poor fit].

**Q.** Which Potency does the source give for CCc1ccc(NC(=O)C2CCCN(c3nn4cc(-c5ccc(OC)cc5)nc4s3)C2)cc1 (centres undefined) here?
**A.** The Potency was inconclusive: 28.2 µM [inhibitor, partial curve, poor fit].

**Q.** Which Potency does the source give for COc1ccc(C2=Nc3ccccc3OC2)cc1 here?
**A.** Its Potency is inconclusive: 2.24 µM [inhibitor, partial curve, poor fit].

**Q.** With CCOc1ccc(NC(=O)CN2CCN(CC(=O)Nc3ccc(F)c(F)c3)CC2)cc1 as the compound, how does the activity, negative = inhibition read?
**A.** The activity, negative = inhibition was inconclusive: -89.4% [inhibitor].

**Q.** Which Potency does the source give for CC(=O)Nc1ccc(S(=O)(=O)N(C)CC(=O)OCC(=O)NCc2ccco2)cc1 here?
**A.** Its Potency is inconclusive: 79.4 µM [inhibitor, partial curve, poor fit].

**Q.** Which Potency does the source give for O=C(C1=C(O)C(=O)N(c2ncccn2)C1c1cccs1)c1ccco1 (centres undefined) here?
**A.** The Potency was active: 10 µM.

**Q.** COc1ccc(CNc2cc(-c3cccc(NS(C)(=O)=O)c3)ncn2)c(OC)c1 was tested. Which activity, negative = inhibition did it give?
**A.** The activity, negative = inhibition was inactive: 10.2% [at 0.501 µM].

**Q.** For CCOc1ccc(S(=O)(=O)NN=C2CCN(C(C)=O)CC2)cc1, which Potency is on record?
**A.** The Potency was active: 50.1 µM.

**Q.** How did the “activity, negative = inhibition” value turn out when CCn1c(SCC(=O)NC2CCCCC2)nc2ccccc2c1=O was run?
**A.** Its value is inactive: -2.71% [at 102 µM].

**Q.** For CCC(C)NCCOCCOc1ccc(C)cc1Br (centres undefined), which Potency is on record?
**A.** The Potency was inconclusive: 11.2 µM [inhibitor, partial curve, poor fit].

**Q.** O=C(CCC1CCCCC1)Nc1ccc(C(=O)c2ccncc2)cc1 was tested. Which Potency did it give?
**A.** The Potency was inconclusive: 89.1 µM [inhibitor, partial curve, poor fit].

**Q.** C=CCNC(=O)/C(=C\c1ccc(OC)cc1)NC(=O)c1ccc([N+](=O)[O-])cc1 was tested. Which “activity, negative = inhibition” value did it give?
**A.** The value was inactive: -6.18% [at 102 µM].

**Q.** COc1cccc2sc(Nc3nc(-c4cc5ccccc5oc4=O)cs3)nc12 was tested. Which Potency did it give?
**A.** The Potency was inconclusive: 44.7 µM [inhibitor, partial curve].

**Q.** CC(=O)N=Cc1c(C)c(C#N)c(=O)n(C)c1O was tested. Which Potency did it give?
**A.** The Potency was active: 44.7 µM.

**Q.** Which Potency does the source give for Cc1onc(-c2c(F)cccc2Cl)c1C(=O)OCC(=O)NC(N)=O here?
**A.** The Potency was inconclusive: 14.1 µM [inhibitor, partial curve, poor fit].

**Q.** O=C1NC(CCc2ccccc2)C(=O)N1CCOc1cccc(Br)c1 (centres undefined) was tested. Which “activity, negative = inhibition” value did it give?
**A.** Its value is inactive: 32.6%.

**Q.** With Cc1ccc(C(=O)Nc2ccc3c(c2)CCC3)o1 as the compound, how does the activity, negative = inhibition read?
**A.** Its activity, negative = inhibition is inactive: -10.1% [at 12.7 µM].

**Q.** Which “activity, negative = inhibition” value does the source give for COc1ccccc1C(=O)C1CCCN(C(=O)C2=CC(=O)CC(C)(C)O2)C1 (centres undefined) here?
**A.** The value was inactive: 4.55% [at 102 µM].

**Q.** CC(Nc1ccc(F)cc1F)C(=O)NC(=O)NC1CCCCC1 (centres undefined) was tested. Which Potency did it give?
**A.** The Potency was inconclusive: 89.1 µM [inhibitor, partial curve, poor fit].

**Q.** For CCCCn1c(N)c(N(CC(C)C)C(=O)c2ccc(C)o2)c(=O)[nH]c1=O, which Potency is on record?
**A.** Its Potency is inconclusive: 8.91 µM [inhibitor, single point].

**Q.** For Cc1cc(N2C(=O)C(O)=C(C(=O)c3cc4ccccc4o3)C2c2ccc(Cl)cc2)no1 (centres undefined), which activity, negative = inhibition is on record?
**A.** The activity, negative = inhibition was inactive: -6.56% [at 0.0925 µM].

**Q.** CC(=O)c1ccc(NS(=O)(=O)c2cnc(N)nc2)cc1 was tested. Which Potency did it give?
**A.** The Potency was inconclusive: 31.6 µM [inhibitor, single point].

**Q.** CC(/C=C1\SC(=S)N(CCC(=O)Nc2nc(C)cs2)C1=O)=C\c1ccccc1 was tested. Which activity, negative = inhibition did it give?
**A.** The activity, negative = inhibition was inconclusive: -89.9% [inhibitor].

**Q.** For COc1cc(-c2nc(-c3ccccc3)c(-c3cc([N+](=O)[O-])ccc3C)[nH]2)cc(OC)c1OC, which Potency is on record?
**A.** Its Potency is active: 10 µM.

**Q.** For O=C(c1cccc(C(F)(F)F)c1)N1CCN(C2CCCCC2)CC1, which “activity, negative = inhibition” value is on record?
**A.** Its value is inactive: -2.99%.

**Q.** Which Potency does the source give for Cc1nc2cc(OCc3cc(C(=O)NC(C)c4cnn(C)c4)no3)ccc2s1 (centres undefined) here?
**A.** Its Potency is inconclusive: 70.8 µM [inhibitor, partial curve, poor fit].
